Values marked as one replicate rest on one cluster of the flow cell; about a third of the high ones do not repeat.
Tested on: ATP
Assay: switch fluorescence ratio, 500 uM ATP over buffer (Cy3 cluster intensity, sum of 5 cycles each) (fold (ratio)); higher = stronger signal-on switching upon ATP binding; sequences stand for … in TCGTCGGCAGCGTCAGATGTGTATAAGAGACAGTTTTTTTTTTTTTTTTTTTTTTTTT…TC
Details: aptamer strand: ATP DNA aptamer (quencher-CACCTGGGGGAGTATTGCGGAGGAAGG + anchor), 100 nM annealed; ATP concentration: 500 uM; one replicate
In short: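 Cy3-labelled switching-strand clusters on a modified Illumina MiSeq flow-cell were annealed to 100 nM quencher-labelled ATP aptamer, imaged in selection buffer, then imaged after 15 min with 500 uM ATP at 22 °C. Five buffer/ATP cycles ran, with NaOH stripping and re-annealing between them. The fluorescence ratio is summed target-cycle over summed buffer-cycle Cy3 intensity per cluster, averaged per switch-domain sequence. Clusters outside 100-1000 RFU were excluded.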
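Further: ATP exposure 15 min at 22 °C before imaging.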

| Sequence | switch fluorescence ratio |
| --- | --- |
| CAGTCTGCGG | 0.973 |
| CAGTGGATTC | 1.02 |
| CAGTGTGGGC | 0.938 |
| CAGTTAGTAA | 1.01 |
| CAGTTATATT | 1.02 |
| CAGTTGTAAT | 0.992 |
| CAGTTTGGAG | 1.02 |
| CAGTTTTAGA | 0.967 |
| CATAAAAGGC | 0.992 |
| CATAACCTGG | 1.01 |
| CATAACGGGA | 1.03 |
| CATAATTAAG | 1.02 |
| CATACCCCAT | 1.04 |
| CATACGTCG | 1.02 |
| CATAGAGCGT | 0.942 |
| CATAGATATG | 0.969 |
| CATAGCAACA | 1.74 |
| CATAGGATGC | 1.03 |
| CATAGGGTAA | 0.999 |
| CATAGGTCCC | 0.975 |
| CATAGTCAAT | 1.3 |
| CATATACTGG | 1.08 |
| CATATAGAA | 0.969 |
| CATATAGGGA | 0.997 |
| CATATATAGT | 1.05 |

| Sequence | switch fluorescence ratio |
| --- | --- |
| CATATCCCAT | 1 |
| CATATTACGC | 0.998 |
| CATATTCATC | 0.995 |
| CATATTGCGA | 1.07 |
| CATATTGGTG | 0.982 |
| CATATTGTA | 0.996 |
| CATCACTTAA | 1.04 |
| CATCAGAACT | 1.03 |
| CATCAGCGGC | 2.69 |
| CATCCACCGC | 3.81 |
| CATCCCGGCC | 1.28 |
| CATCCCGTAG | 1.32 |
| CATCCGTGAG | 3.72 |
| CATCCGTTTT | 1.78 |
| CATCCTCAGT | 1.4 |
| CATCCTGTCA | 1.08 |
| CATCCTTGCC | 1.21 |
| CATCGATATG | 0.994 |
| CATCGATCCC | 1.01 |
| CATCGGGAGA | 0.967 |
| CATCGGGATT | 1.01 |
| CATCGTAGGA | 1.02 |
| CATCGTATA | 0.977 |
| CATCGTATGT | 0.961 |
| CATCGTCGGT | 0.959 |

| Sequence | switch fluorescence ratio |
| --- | --- |
| CATCTAGTTG | 0.947 |
| CATCTATTGG | 0.986 |
| CATCTCAGTT | 1.05 |
| CATCTCGGTG | 0.999 |
| CATCTGTATT | 1.07 |
| CATCTTTAAC | 1.04 |
| CATCTTTATG | 1 |
| CATCTTTGTA | 0.941 |
| CATGAAAGGA | 0.976 |
| CATGACCGTA | 1.1 |
| CATGACCTG | 0.942 |
| CATGACGGTG | 0.979 |
| CATGACTACG | 0.939 |
| CATGACTGGG | 1.07 |
| CATGAGTTAT | 0.992 |
| CATGATAGTG | 1.03 |
| CATGATGTTT | 0.988 |
| CATGATTGGT | 0.962 |
| CATGCACGCG | 1 |
| CATGCATCAA | 1.01 |
| CATGCCAAC | 1.01 |
| CATGCCAGTT | 0.969 |
| CATGCCCCTG | 1.08 |
| CATGCCTATG | 1.01 |
| CATGCGATGT | 1.02 |

| Sequence | switch fluorescence ratio |
| --- | --- |
| CATGCGGGCA | 0.972 |
| CATGCGTATG | 1.03 |
| CATGCTGATG | 0.999 |
| CATGGA | 0.987 |
| CATGGAAGGT | 0.992 |
| CATGGACCTA | 1.04 |
| CATGGACTGC | 1.04 |
| CATGGAGGCT | 0.953 |
| CATGGAGGT | 1.01 |
| CATGGCACC | 1.05 |
| CATGGCCATT | 0.962 |
| CATGGCTGTG | 1.01 |
| CATGGGCTT | 1.03 |
| CATGGGTTGA | 1.08 |
| CATGGTAAGC | 1 |
| CATGTAAGAG | 0.977 |
| CATGTATAAT | 0.954 |
| CATGTCACAA | 1.03 |
| CATGTCCGGG | 1.03 |
| CATGTCGCAA | 4.11 |
| CATGTCGCTT | 0.996 |
| CATGTCGGT | 1.03 |
| CATGTGCTAT | 1.1 |
| CATGTGCTCT | 1 |
| CATGTGCTGG | 1.01 |
